About 50,000 (12%) of roughly 420,000 compounds were called active. The shares of active, inactive and inconclusive entries below differ from those in the screen. The call rests on the fitted dose curve; in most records, active means well fitted inhibition curve with a large enough effect; inconclusive means small, poorly fitted or top-dose-only effect; inactive means flat fitted curve, though single readings scatter. No potency is given beside an inconclusive call; the fits are too rough.
Test: qHTS for Inhibitors of human tyrosyl-DNA phosphodiesterase 1 (TDP1): qHTS in cells in presence of CPT; further: nearly all actives have a fitted effect of over 55% in size
Details: chicken DT40 Tdp1-/-;hTDP1 cells + 20 nM CPT, ATP luminescence, 48 h; activity change, negative = growth inhibition: at 46.2 µM (top of the series) unless noted
Summary of the method: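 Cell growth measured by CellTiter-Glo luminescence after a minimum 48 h, 37 C compound exposure with 20 nM CPT in Tdp1-knockout DT40 cells stably expressing hTDP1, seeded 400/well; qHTS titration format.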
On the % scale 0 is the no-effect control and ±100 the full control effect; potency means the concentration at half of the fitted maximal effect; tags describe the fitted curve by direction and shape.

Compound	Potency	activity change, negative = growth inhibition
CCCOc1ccccc1C1CC(=O)NC2=C1C(=O)CCC2 (centres undefined)	active: 4.11 µM	
CSc1cccc(NC(=O)CCCOc2cc(=O)n(C)c3ccccc23)c1	inconclusive [inhibitor, single point]	
O=c1[nH]c(CSc2nc3ccccc3s2)nc2ccccc12		inactive: -22.1%
CCn1cc(C(=O)NCCCOC(C)C)c(=O)c2cc(S(=O)(=O)N(C)C3CCCCC3)ccc21	inconclusive [inhibitor, single point]	
O=C1[C@H]2C(c3ccccc3)=NN(c3ccccc3)[C@H]2C(=O)N1c1ccccc1		inactive: -15.1%
N=c1c2c(-c3ccccc3)c(-c3ccccc3)n(Cc3ccco3)c2ncn1CCCN1CCOCC1	inconclusive [inhibitor, full curve, poor fit]	
Cc1cccc(NC(=O)CSc2nc3sc(C)cc3c(=O)n2C)c1	inconclusive [inhibitor, single point]	
CCCC(c1nnnn1Cc1cccs1)N1CCN(C2CCCC2)CC1 (centres undefined)	inconclusive [inhibitor, single point]	
COc1ccccc1OCCCCNCCO		inactive: -1.14%
COc1cc(OC)c(NC(=O)CSCc2nc(-c3ccc(OC)c(OC)c3)no2)cc1Cl	inconclusive [inhibitor, single point]	
CCN(CC)c1ccc(NC(=O)CN2C(=O)CSc3ncccc32)c(C)c1	active: 5.17 µM	
CCOC(=O)C(=NO)C1=CSC2=NNC(C)(C)N12	inconclusive [inhibitor, single point]	
COc1ccc(OCc2n(CC(=O)OC3CC(C)CCC3C(C)C)c3ccccc3[n+]2C)cc1 (centres undefined)	active: 3.26 µM	
Cc1ccc(S(=O)(=O)c2c(C)cc(C)nc2N2CCCCC2)cc1	active: 23.1 µM	
COc1ccc(-c2csc(C(C)(O)c3ccc(F)c(F)c3)n2)cc1 (centres undefined)	inconclusive [inhibitor, single point]	
O=C(Nc1cc(-c2nc3cc(Cl)ccc3o2)ccc1Cl)c1cc2ccccc2o1		inactive: 4.89%
COc1cccc(C2=CC(=O)C[C@H](c3ccc(Cl)cc3)C2)c1	inconclusive [inhibitor, single point]	
Cc1cc(C)c(C)c(S(=O)(=O)N2CCC(C(=O)N3CCCCCCC3)CC2)c1C	inconclusive [inhibitor, single point]	
O=C(NNC(=S)NC(=O)c1ccc(Br)cc1)c1ccc([N+](=O)[O-])cc1	inconclusive [inhibitor, single point]	
CN(Cc1ccccc1)S(=O)(=O)c1ccc(F)c(C(=O)Nc2cc(Cl)cc(Cl)c2)c1	inconclusive [inhibitor, single point]	
CCc1cccc(CC)c1NC(=O)CN1CCN(c2ccccc2)CC1	inconclusive [inhibitor, single point]	
O=C(NCc1ccccn1)c1cccc(NS(=O)(=O)c2ccc(Br)cc2)c1	inconclusive [inhibitor, single point]	

Compound	Potency	activity change, negative = growth inhibition
CCc1ccc(-n2cnc3cc(C(=O)NCC(OC)OC)ccc32)cc1		inactive: -20.5%
CCCc1nc2oc3c(OCC)ncnc3c2c2c1COC(C)(C)C2	inconclusive [inhibitor, partial curve, poor fit]	
COc1ccc(C2CC(c3ccccc3)=NN2C(=O)c2ccc(F)cc2)cc1 (centres undefined)	inconclusive [inhibitor, single point]	
COc1ccc(N2CC(C)Cn3c2nc2c3c(=O)n(Cc3ccc(F)cc3)c(=O)n2C)c(OC)c1 (centres undefined)	inconclusive [inhibitor, single point]	
NC(=O)N1CCN(CCCN2c3ccccc3Sc3cc(Cl)ccc32)CC1	inconclusive [inhibitor, single point]	
Nc1nonc1C(=O)NCCNCc1c(OCc2ccccc2F)ccc2ccccc12	active: 11.2 µM	
COc1ccc(-c2nc3ccc(C)cn3c2CC(C)(C)C)cc1OC	active: 18.4 µM	
COc1cc(C)ccc1OCCSc1nc2ccc(NC(=O)c3ccc(C)cc3)cc2s1		inactive: -27.4%
CC1(C)CC(=O)c2cc(-c3nc(-c4ccc(Cl)cc4)cs3)c(=O)n(-c3cccc(F)c3)c2C1	inconclusive [inhibitor, single point]	
CN(C)c1ccc(/C=C/c2cc[n+](C)cc2)cc1	active: 6.51 µM	
CC1(C)CCC(c2ccc(Cl)cc2)=C(CN2CCN(c3ccc(C(=O)NS(=O)(=O)c4ccc(N[C@H](CCN5CCOCC5)CSc5ccccc5)c(S(=O)(=O)C(F)(F)F)c4)cc3)CC2)C1	active: 0.447 µM	
O=C(/C=C/c1ccc(Cl)cc1)NCCN1CCOCC1		inconclusive: -30% [inhibitor]
COc1ccc(-c2csc(NC(=O)CN3C(=O)C4CCCCC4C3=O)n2)c(OC)c1 (centres undefined)	inconclusive [inhibitor, single point]	
CCCNC(=O)C1CCN(Cc2cc3ccccc3n2Cc2ccccc2)CC1	inconclusive [inhibitor, single point]	
Cc1ncsc1C(=O)N1N=C2/C(=C/c3ccccc3)CCCC2C1c1ccccc1 (centres undefined)	inconclusive [inhibitor, single point]	
CN1/C(=C\C(=O)c2oc3ccccc3c2N)C(C)(C)c2ccccc21	inconclusive [inhibitor, single point]	
CCC/C(O)=C1\C(=O)CC(c2ccccc2)CC1=NCCc1c(C)[nH]c2ccc(C)cc12 (centres undefined)	active: 18.4 µM	
Cc1c(C(=O)N(Cc2ccc(N(C)C)cc2)Cc2ccco2)oc2cc(Br)ccc12	active: 23.1 µM	
COc1ccc(CNC(=O)CCc2c(C)nc3nc(CNC(=O)OC(C)(C)C)nn3c2C)cc1		inactive: -8.14%
Cc1cc(C)cc(NS(=O)(=O)c2ccc(NC(=S)NC(=O)c3cccs3)cc2)c1	active: 20.6 µM	
CC(=O)c1cccc(Nc2nn(-c3ccc(OC(F)(F)F)cc3)nc2C(C)=O)c1		inconclusive: -34.1% [inhibitor]
c1csc(C(c2nnnn2C2CCCC2)N2CCCC3(CCCCC3)C2)c1 (centres undefined)	inconclusive [inhibitor, single point]	

From PubChem BioAssay AID686979 (National Center for Advancing Translational Sciences (NCATS), 2013)
